{"source": "the BET-seq Pho4 binding data (Le et al. 2018)", "note": "The list shows a part of the results. These are noisy estimates, calculated here from bound and input reads.", "data": [{"biological_target": "T1, Pho4 (S. cerevisiae) (UniProt P07270)", "T1 sequence": "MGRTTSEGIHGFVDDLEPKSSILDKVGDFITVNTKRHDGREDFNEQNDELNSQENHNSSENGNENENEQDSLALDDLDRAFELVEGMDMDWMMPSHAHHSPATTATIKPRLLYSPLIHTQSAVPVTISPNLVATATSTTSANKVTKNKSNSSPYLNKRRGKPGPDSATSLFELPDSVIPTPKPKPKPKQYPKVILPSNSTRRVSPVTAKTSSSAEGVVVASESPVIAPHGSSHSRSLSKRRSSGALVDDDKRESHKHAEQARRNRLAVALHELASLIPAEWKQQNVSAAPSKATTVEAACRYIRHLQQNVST", "test": "relative binding free energy (BET-seq); higher = weaker binding", "settings": "reference: library average", "units": {"relative binding free energy": "kcal/mol"}, "values": [{"sequence": "TCATTCACGTGATAGT", "relative binding free energy": 0.23}, {"sequence": "ATTAACACGTGTATAT", "relative binding free energy": -0.03}, {"sequence": "TAATCCACGTGTATGT", "relative binding free energy": 0.02}, {"sequence": "CTGGGCACGTGTAATG", "relative binding free energy": -0.03}, {"sequence": "TGTCTCACGTGTTTTT", "relative binding free energy": 0.22}, {"sequence": "GGAGGCACGTGTTTGC", "relative binding free energy": -0.11}, {"sequence": "TTGGACACGTGTGCGG", "relative binding free energy": 0.03}, {"sequence": "CGTGTCACGTGTATGT", "relative binding free energy": -0.13}, {"sequence": "GGGTCCACGTGGGCAA", "relative binding free energy": 0.11}, {"sequence": "GGATTCACGTGGAATA", "relative binding free energy": 0.45}, {"sequence": "TTCGGCACGTGGTTTC", "relative binding free energy": -0.15}, {"sequence": "TGAAGCACGTGTAGGC", "relative binding free energy": -0.12}, {"sequence": "ATAGTCACGTGTCTGT", "relative binding free energy": 0.02}, {"sequence": "ATAGGCACGTGTGGCT", "relative binding free energy": -0.1}, {"sequence": "CTTGACACGTGAGATA", "relative binding free energy": 0.41}, {"sequence": "TATAACACGTGGGTGA", "relative binding free energy": -0.33}, {"sequence": "ATTGTCACGTGGATCG", "relative binding free energy": 0.06}, {"sequence": "GTTTTCACGTGTCCGT", "relative binding free energy": 0.34}, {"sequence": "AGCTGCACGTGGATTT", "relative binding free energy": -0.09}, {"sequence": "TTTGGCACGTGAGCCG", "relative binding free energy": 0.19}, {"sequence": "AGGGTCACGTGGTACA", "relative binding free energy": -0.01}, {"sequence": "TCTATCACGTGTGGCG", "relative binding free energy": 0.22}, {"sequence": "TCGCACACGTGGGGTT", "relative binding free energy": -0.18}, {"sequence": "AGTTCCACGTGATTTT", "relative binding free energy": 0.23}, {"sequence": "GTTCGCACGTGGATGT", "relative binding free energy": -0.03}, {"sequence": "GTGTTCACGTGCGTCT", "relative binding free energy": 0.22}, {"sequence": "ATGGGCACGTGTTAGT", "relative binding free energy": -0.1}, {"sequence": "TGGAACACGTGAGTTT", "relative binding free energy": 0.31}, {"sequence": "CTGGTCACGTGACAGT", "relative binding free energy": 0.28}, {"sequence": "ATGGTCACGTGGGCAC", "relative binding free energy": 0.02}, {"sequence": "ATTAACACGTGACTTT", "relative binding free energy": 0.12}, {"sequence": "GCCTGCACGTGAGTGG", "relative binding free energy": 0.14}, {"sequence": "AGGTCCACGTGTGTGA", "relative binding free energy": 0.04}, {"sequence": "TGAGTCACGTGTTGGT", "relative binding free energy": 0.21}, {"sequence": "TGAATCACGTGGACGG", "relative binding free energy": 0.22}, {"sequence": "CTTGTCACGTGAGTGT", "relative binding free energy": 0.38}, {"sequence": "TTATTCACGTGGTATC", "relative binding free energy": 0.17}, {"sequence": "GTCTACACGTGTTGGG", "relative binding free energy": 0.07}, {"sequence": "GGCGACACGTGGCGGG", "relative binding free energy": -0.15}, {"sequence": "TGATACACGTGTTTGG", "relative binding free energy": 0.1}, {"sequence": "AAGTTCACGTGGAGAT", "relative binding free energy": 0.12}, {"sequence": "TGAATCACGTGGGTCT", "relative binding free energy": 0.07}, {"sequence": "TCTTGCACGTGGTGTC", "relative binding free energy": -0.02}, {"sequence": "TGTTGCACGTGTTGGA", "relative binding free energy": 0.05}, {"sequence": "AGTAACACGTGGTGAT", "relative binding free energy": -0.05}, {"sequence": "AGGGTCACGTGGCTAG", "relative binding free energy": -0.01}, {"sequence": "GGAGGCACGTGAAGTA", "relative binding free energy": 0.19}, {"sequence": "GTCGGCACGTGGGAGA", "relative binding free energy": -0.19}, {"sequence": "TCGAGCACGTGGGTAT", "relative binding free energy": -0.27}, {"sequence": "AGAGGCACGTGGCGAA", "relative binding free energy": -0.11}, {"sequence": "AATTACACGTGTTAGG", "relative binding free energy": 0.08}, {"sequence": "GGTGGCACGTGGTGAA", "relative binding free energy": -0.1}, {"sequence": "AGGTACACGTGATCTG", "relative binding free energy": 0.21}, {"sequence": "GGTTACACGTGGTGGA", "relative binding free energy": 0.15}, {"sequence": "TAGTGCACGTGTCTTT", "relative binding free energy": -0.08}, {"sequence": "CGATTCACGTGTAGTG", "relative binding free energy": 0.29}, {"sequence": "GAGGGCACGTGTGCGC", "relative binding free energy": -0.11}, {"sequence": "ATGGCCACGTGTTTAG", "relative binding free energy": 0.03}, {"sequence": "ACGTGCACGTGGGTCT", "relative binding free energy": -0.21}, {"sequence": "GCTTTCACGTGTGTGA", "relative binding free energy": 0.21}, {"sequence": "AATGCCACGTGAGGGG", "relative binding free energy": -0.04}, {"sequence": "ATATACACGTGTAAAG", "relative binding free energy": 0.1}, {"sequence": "AGTATCACGTGTTTGT", "relative binding free energy": 0.05}, {"sequence": "TCATTCACGTGAGTGG", "relative binding free energy": 0.45}, {"sequence": "TAGTGCACGTGGTAAG", "relative binding free energy": -0.05}, {"sequence": "TTACTCACGTGTTCGT", "relative binding free energy": 0.1}, {"sequence": "GTGAGCACGTGAGATA", "relative binding free energy": 0.29}, {"sequence": "GTGAGCACGTGTATGG", "relative binding free energy": 0.09}, {"sequence": "ATCTGCACGTGGGGAG", "relative binding free energy": -0.13}, {"sequence": "TGTTGCACGTGAATTC", "relative binding free energy": 0.24}, {"sequence": "ATGGTCACGTGGCGGT", "relative binding free energy": -0.06}, {"sequence": "CTTACCACGTGGGTTT", "relative binding free energy": -0.06}, {"sequence": "GTGGGCACGTGGCGGT", "relative binding free energy": -0.13}, {"sequence": "TTTTTCACGTGCTTCT", "relative binding free energy": 0.26}, {"sequence": "TAAGACACGTGATAGT", "relative binding free energy": 0.02}, {"sequence": "TACGCCACGTGGGGTG", "relative binding free energy": -0.35}, {"sequence": "GAGAACACGTGTTGTG", "relative binding free energy": 0.01}, {"sequence": "TGGGACACGTGGTTGG", "relative binding free energy": 0.02}, {"sequence": "ATTGACACGTGGTGGA", "relative binding free energy": 0.03}, {"sequence": "TATGCCACGTGCGTGG", "relative binding free energy": 0}, {"sequence": "TGTGCCACGTGTGGGT", "relative binding free energy": -0.12}, {"sequence": "TAAGTCACGTGGCGTG", "relative binding free energy": -0.04}, {"sequence": "GCGGTCACGTGTGGGT", "relative binding free energy": 0.08}, {"sequence": "GAAGTCACGTGATTGG", "relative binding free energy": 0.27}, {"sequence": "GTATACACGTGGATGG", "relative binding free energy": 0.07}, {"sequence": "TAGTACACGTGATTGG", "relative binding free energy": 0.13}, {"sequence": "GTAGACACGTGTAGTA", "relative binding free energy": 0.07}, {"sequence": "AGTGGCACGTGGAAGG", "relative binding free energy": -0.07}, {"sequence": "GTAGTCACGTGGGAAA", "relative binding free energy": 0.01}, {"sequence": "TGATTCACGTGCGAGA", "relative binding free energy": 0.42}, {"sequence": "TGTGGCACGTGGGATA", "relative binding free energy": -0.19}, {"sequence": "AGTGTCACGTGAGGGC", "relative binding free energy": 0.19}, {"sequence": "GTGTTCACGTGGGTCT", "relative binding free energy": 0.14}, {"sequence": "TGATGCACGTGGGGTG", "relative binding free energy": -0.19}, {"sequence": "AGGGCCACGTGTGTGT", "relative binding free energy": -0.23}, {"sequence": "TCGGGCACGTGTGGTC", "relative binding free energy": -0.11}, {"sequence": "CGGGTCACGTGGTGAA", "relative binding free energy": -0.03}, {"sequence": "AAAGTCACGTGGTAGC", "relative binding free energy": 0.19}, {"sequence": "TTTCTCACGTGGTGGT", "relative binding free energy": 0.3}, {"sequence": "TGGTGCACGTGTTATG", "relative binding free energy": -0.02}, {"sequence": "TACCTCACGTGTGGGT", "relative binding free energy": 0.31}, {"sequence": "TGTGACACGTGTGGTG", "relative binding free energy": 0.12}, {"sequence": "GTGGTCACGTGAGGCT", "relative binding free energy": 0.29}, {"sequence": "CTAGGCACGTGGGCGT", "relative binding free energy": -0.25}, {"sequence": "TTGCTCACGTGGGACG", "relative binding free energy": 0.18}, {"sequence": "GGGCACACGTGCATGT", "relative binding free energy": 0.23}, {"sequence": "ATAAGCACGTGTATAG", "relative binding free energy": -0.11}, {"sequence": "CTGGGCACGTGGTTGC", "relative binding free energy": -0.14}, {"sequence": "ATGGCCACGTGTTTGA", "relative binding free energy": -0.06}, {"sequence": "ACGTTCACGTGTTTGA", "relative binding free energy": 0.24}, {"sequence": "GAGATCACGTGCGGTT", "relative binding free energy": 0.26}, {"sequence": "AGAAGCACGTGGATTG", "relative binding free energy": -0.08}, {"sequence": "TGGAACACGTGATTAG", "relative binding free energy": 0.21}, {"sequence": "TAAGTCACGTGTTGCT", "relative binding free energy": -0.03}, {"sequence": "CTTAGCACGTGTGCTG", "relative binding free energy": -0.04}]}]}
